Laboratory results taken from PubChem BioAssay AID463173 (ICCB-Longwood Screening Facility, Harvard Medical School, 2010).
About 4,300 (8.3%) of roughly 52,000 compounds were called active. Rule as the data show it: active = survival mostly below about 52% (no sharp cut-off); inactive = mostly above about 56%. The list shows a part of the results.

Test system: DeltatarO mutant
Test: S. aureus survival, RN4220 and DeltatarO strains – OD600, teichoic acid synthesis inhibitors, primary screen (AID 463173)
Settings: S. aureus RN4220 wild type/DeltatarO growth, OD600, 18 h, hits give low values, screened at 18.75 µg/mL (by protocol)

SMILES	survival
Cc1c(Cl)cccc1NC(=O)C1CCCN(c2ncnc3onc(C)c23)C1 (configuration not stated)	inactive: 67%
CC(=O)c1cccc(NC(=O)C(CC(C)C)NS(=O)(=O)c2ccc3c(c2)CCN3C(C)=O)c1 (configuration not stated)	inactive: 115%
CCN(CC)S(=O)(=O)c1cccc2nsnc12	inactive: 79%
CCOC(=O)CN(Cc1ccccc1)C(C(=O)NC1CCCCC1)c1ccc(OC)cc1 (configuration not stated)	active: 20%
CCOc1cc(C(=O)Nc2cccc3cccnc23)cc(OCC)c1OCC	active: 10%
COc1ccc(Cl)cc1NC(=O)c1ccc2c(c1)CCN2S(C)(=O)=O	inactive: 81%
COc1cccc(Nc2sc(C(=O)c3ccc(Cl)cc3)c(N)c2C(=O)NCc2ccc(C)cc2)c1	inactive: 95%
O=C(NCCc1ccccc1)c1ccc2c(c1)N(Cc1ccccc1)C(=O)c1ccccc1S2(=O)=O	inactive: 61%
CCc1ccc(N2CCN(S(=O)(=O)N(C)C)CC2)cc1	inactive: 64%
O=C(NCCc1ccccc1)C1CCN(Cc2cc3ccccc3n2Cc2cccc(Cl)c2)CC1	inactive: 93%
COc1ccc(CNC(=O)c2cc(=O)[nH]c3ccc(S(=O)(=O)N4CCCC4)cc23)c(OC)c1	inactive: 76%
CC(=O)c1cccc(Nc2cc(C)nc3nc(Cc4ccccc4)nn23)c1	inactive: 62%
COc1ccc(NC(=O)c2c(C)oc3ccc(O)c(CN4CCN(Cc5ccccc5)CC4)c23)cc1Cl	inactive: 61%
Cc1ccc(Nc2nc3ccccc3c3nnc(C)n23)c(C)c1	inactive: 70%
COc1ccc(-c2cc3nc(C)c(CCC(=O)N4CCN(c5ccc(F)cc5)CC4)c(C)n3n2)c(OC)c1	inactive: 78%
Cc1ccccc1C(=O)OCc1cc(=O)n2nc(C(C)C)sc2n1	inactive: 81%
COc1cc(OC)c(N(C)C(=O)c2cn(C3CCCC3)c(=O)c3c2c2ccccc2n3C)cc1Cl	inactive: 79%
COc1ccc(-n2nc(C(=O)O)c(=O)n(C)c2=O)cc1	inactive: 61%
Cc1ccc(N2CCN(C(=O)c3cnn(-c4ccc(F)cc4F)c3C3CCN(C(=O)OC(C)(C)C)CC3)CC2)c(C)c1	inactive: 91%

SMILES	survival
CN(Cc1ccccc1)S(=O)(=O)c1ccc2[nH]c3c(c2c1)CCCCC3	inactive: 67%
CCN1CCN(C(c2ccc(C)cc2)c2c(O)cc(C)n(Cc3ccco3)c2=O)CC1 (configuration not stated)	inactive: 69%
CCOC(=O)c1c(C)n(-c2ccccc2)c2ccc(OC(=O)c3cccc(C)c3)cc12	inactive: 63%
CC(=O)c1cccc(NC(=O)Nc2nnc(N3CCCC3)s2)c1	inactive: 104%
Cc1oc2ncn(C)c(=O)c2c1C(=O)NCCCN1CCCCC1C (configuration not stated)	inactive: 86%
CCCOc1ccc(CNC(=O)c2ccc(C)c(-n3c(C)nc4cccnc43)c2)cc1	inactive: 94%
COc1ccc(-n2nc(C(=O)Nc3ccc(Cl)cn3)c3c4ccccc4n(C)c3c2=O)cc1	inactive: 99%
Cc1cccc(NC(=O)Cn2nc3c4ccccc4n(Cc4ccccc4)cc-3c2=O)c1	inactive: 84%
O=C(Nc1cccc(C(F)(F)F)c1)N1CC2CCCN2c2ccccc21 (configuration not stated)	inactive: 61%
Cc1cccc(-n2ncc(C(=O)N3CCN(c4ccc(C)cc4C)CC3)c2C2CCN(C(=O)OC(C)(C)C)CC2)c1	inactive: 86%
Cc1ccsc1CN(C(=O)c1oc2ccc(Br)cc2c1C)C1CCS(=O)(=O)C1 (configuration not stated)	inactive: 70%
Cc1cn(C)c(CC(=O)NCc2ccccc2)c1C(=O)O	inactive: 85%
CCOc1ccc(Nc2c(S(=O)(=O)c3ccc(Cl)cc3)cnc3ccc(OCC)cc23)cc1	inactive: 66%
CCN1c2ccccc2-c2nc(SCC(=O)NCc3ccc(Cl)cc3)ncc2S1(=O)=O	active: 46%
Cc1ccccc1CNC(=O)c1oc2c(c1C)-c1[nH]ncc1CC2	inactive: 80%
NC(=O)C1CCN(CC(=O)N2N=CCC2c2ccccc2)CC1 (configuration not stated)	inactive: 90%
Cc1ccccc1Nc1nn2c(=O)c3ccc(C(=O)NCCc4ccc(Cl)cc4)cc3nc2s1	inactive: 82%
Cc1ccc2nc(Cl)c3cc(C(=O)N4CCCCC4C)sc3c2c1 (configuration not stated)	active: 23%
COc1ccc(Cl)cc1NC(=O)CN1C(=O)C(C)(C)c2cc(S(=O)(=O)N3CCCCC3)ccc21	inactive: 70%

SMILES	survival
Cc1ccc2c(c1)c1nnc(SCC(=O)N3CCCCC3C)nc1n2C (configuration not stated)	inactive: 83%
CN(C(=O)c1ccco1)c1ccccc1C(=O)O	inactive: 108%
O=C(Cn1c(=O)nc(-c2ccccc2)c2cc(Cl)ccc21)N1CCN(c2ccccc2F)CC1	inactive: 94%
COc1ccc2c(c1)CC(C(=O)NCCCN1CCN(c3cccc(Cl)c3)CC1)CO2 (configuration not stated)	inactive: 73%
CCOC(=O)c1sc2ccccc2c1S(=O)(=O)N1CCN(c2cccc(C)c2)C(C)C1 (configuration not stated)	inactive: 95%
CCOc1cc(NC(=S)NCCCN2CCOCC2)c(OCC)cc1NC(=O)C1CC1	inactive: 94%
O=C(CC1C(=O)N(c2ccccc2)C(=O)N1CCc1cccs1)Nc1ccc(F)cc1 (configuration not stated)	inactive: 63%
O=C(CCCn1c(=O)c2cccn2c2cccnc21)NCc1ccccc1Br	inactive: 130%
CSc1nc(-c2ccco2)nn1C(=O)c1ccc(C)cc1	inactive: 65%
CSc1ncc(C(=O)N2CCN(c3cccc(Cl)c3)CC2)c(C)n1	active: 0%
CCOc1ccc(CCNC(=O)Cn2nnc(-c3ccccc3Cl)n2)cc1OCC	inactive: 70%
Cc1c(C)n(Cc2ccc(F)cc2)c2ccc(C(=O)NCc3ccco3)cc12	inactive: 87%
O=C(NCCN1CCN(c2cccc(Cl)c2)CC1)Nc1ccccc1C(F)(F)F	inactive: 109%
O=C(CSc1ncc(-c2ccccc2)[nH]1)Nc1ccc(Cl)cc1	active: 36%
Cc1ccc(CNc2nc(-c3ccco3)nn2S(=O)(=O)c2ccc3ccccc3c2)cc1	inactive: 115%
COc1ccc(OCC(=O)NCCO)cc1	inactive: 100%
CC(C)COc1ccc(C(=O)N2CCCCC2CCN2CCCCC2)cc1 (configuration not stated)	inactive: 79%
Cc1cc(NC(=O)CSc2nc(C3CCCCC3)nc3sc(C)c(C)c23)no1	inactive: 90%
Cc1cccc(-c2nnn3c2nc(NCc2ccc4c(c2)OCO4)c2ccccc23)c1	inactive: 71%
